From article PMC4336329 (PLoS ONE, 2015)
Hit rate of the full screen: of about 310,000 compounds, about 2,200 (0.71%) showed an effect of 50% or more. The effect is printed as a negative number. Some of the results follow.

Each compound was assayed against human ether-à-go-go-related gene (hERG) potassium channel (human, UniProt Q12809) (assay: primary screen, population patch clamp on CHO cells stably expressing hERG).
Chain of human ether-à-go-go-related gene (hERG) potassium channel (Q12809 whole entry, looked up): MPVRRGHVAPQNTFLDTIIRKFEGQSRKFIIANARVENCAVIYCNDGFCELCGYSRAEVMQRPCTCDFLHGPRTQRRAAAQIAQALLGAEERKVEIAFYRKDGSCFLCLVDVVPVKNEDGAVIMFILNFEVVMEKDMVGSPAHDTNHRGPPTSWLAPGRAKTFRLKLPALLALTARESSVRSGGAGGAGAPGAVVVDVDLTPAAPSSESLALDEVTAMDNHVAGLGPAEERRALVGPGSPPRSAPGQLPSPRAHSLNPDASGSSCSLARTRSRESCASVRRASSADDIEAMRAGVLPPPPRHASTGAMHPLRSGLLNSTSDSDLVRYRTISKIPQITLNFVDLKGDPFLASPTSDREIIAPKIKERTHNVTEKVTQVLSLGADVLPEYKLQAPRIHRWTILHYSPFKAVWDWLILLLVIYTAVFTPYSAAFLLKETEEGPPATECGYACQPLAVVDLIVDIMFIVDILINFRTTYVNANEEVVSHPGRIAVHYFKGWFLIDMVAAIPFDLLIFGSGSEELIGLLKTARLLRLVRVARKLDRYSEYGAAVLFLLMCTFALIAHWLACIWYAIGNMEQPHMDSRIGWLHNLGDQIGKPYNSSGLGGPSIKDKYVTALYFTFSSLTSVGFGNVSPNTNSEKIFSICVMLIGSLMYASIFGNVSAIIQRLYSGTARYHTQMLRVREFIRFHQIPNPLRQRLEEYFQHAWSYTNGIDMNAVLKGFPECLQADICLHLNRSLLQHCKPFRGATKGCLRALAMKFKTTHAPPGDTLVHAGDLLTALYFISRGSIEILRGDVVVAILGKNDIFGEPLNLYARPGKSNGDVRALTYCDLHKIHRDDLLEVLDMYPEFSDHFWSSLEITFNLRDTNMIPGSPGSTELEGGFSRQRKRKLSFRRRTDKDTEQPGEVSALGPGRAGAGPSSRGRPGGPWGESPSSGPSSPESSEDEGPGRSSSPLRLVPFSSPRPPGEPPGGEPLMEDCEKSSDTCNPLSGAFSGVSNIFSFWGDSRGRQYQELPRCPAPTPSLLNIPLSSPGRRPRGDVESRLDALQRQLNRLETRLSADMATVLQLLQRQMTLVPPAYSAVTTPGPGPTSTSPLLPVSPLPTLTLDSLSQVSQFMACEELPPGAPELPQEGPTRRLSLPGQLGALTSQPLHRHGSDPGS

Point of comparison: `O=C(CN(CC1CCCO1)C(=O)CNS(=O)(=O)c1ccc(F)cc1)NC1CCCC1` (stereo not shown), “hERG current change (%, negative = inhibition) at 1uM” value 12%. Against it:
- C=CCNC(=S)N1CCc2c([nH]c3ccccc23)C1C (stereo not shown) — lower, 2.1%
- CC(=O)CCC(=O)NCCc1ccccc1F — lower, 5.68%
- O=C(c1ccc2c3c(cccc13)CC2)N1CCOCC1 — lower, 10.4%
- CC(C)CC(=O)N1CCN(S(=O)(=O)c2ccc(C3CCCCC3)cc2)CC1 — lower, 10.2%
- Cn1cnnc1Sc1ccc(C(=O)OCC(=O)Nc2ccccc2)cc1[N+](=O)[O-] — lower, 3.13%
- CCOC(=O)c1cc(-c2cccc([N+](=O)[O-])c2)n[nH]1 — lower, 3.04%
- O=C(Nc1nnc(CCN2CCOCC2)s1)c1ccccc1 — lower, 7.54%
- Cn1c(CNC(=O)c2ccco2)nnc1SCC(=O)c1ccccc1 — lower, -3.44%
- CCCC/C(C)=C/[C@@H](NP(=O)(c1ccccc1)c1ccccc1)c1ccccc1 — lower, 7.59%
- C/C(=N\NC(N)=S)C1C2C3CC4C5CC(C42)C1C53 (stereo not shown) — lower, 1.65%
- CCOc1ccc(OCC)c(S(=O)(=O)N2CCOCC2)c1 — lower, 11.8%
- CN(c1cccc(NC(=O)c2ccc(CN3CCc4ccccc4C3)cc2)c1)S(C)(=O)=O — lower, 10.2%
- Cc1ccccc1NS(=O)(=O)c1ccc2[nH]cc(C(=O)N(C)Cc3ccco3)c(=O)c2c1 — lower, 10.5%
- COc1ccc([C@H]2[C@@H]3C=CCC[C@@]3(C)C(=O)N2Cc2ccccc2)cc1Cl — higher, 16.5%
- Cc1ccc(OCC(=O)N2CCN(S(=O)(=O)c3ccc4c(c3)OCCO4)CC2)c(C)c1 — lower, 10%
- Fc1ccccc1/C=N/Nc1nc2ccccc2o1 — higher, 13.8%
- CC(=O)c1cccc(NC(=O)c2cccc(NC(=O)c3ccco3)c2)c1 — higher, 14.9%
- CCCC1CCc2c(sc(NC(=O)c3cccs3)c2C(N)=O)C1 (stereo not shown) — lower, -1.72%
- Cc1ccc(-n2cc(CNCCCN3CCCC3=O)c(-c3ccc(F)cc3)n2)cc1 — lower, -20.5%
- Cc1ccc(-c2nc3ccccc3c(=O)n2-c2ccc(Br)cn2)cc1 — lower, -3.58%
- O=C(NCCCn1ccnc1)c1ccncc1 — lower, -1.81%
- O=C(Cc1ccccc1[N+](=O)[O-])NC1CCN(Cc2ccccc2)CC1 — lower, 10.1%
- CCOc1ccc(N(C(=O)C2CCCO2)C2C=CS(=O)(=O)C2)cc1 (stereo not shown) — lower, 11.8%
- CC(C)[C@H](NS(=O)(=O)/C=C/c1ccccc1)C(=O)OCC(=O)NC(N)=O — higher, 27%
- CCn1c(C)[n+](CCOCC[n+]2c(C)n(CC)c3cc(Cl)c(Cl)cc32)c2cc(Cl)c(Cl)cc21.[I-] — lower, 8.45%
- O=C(c1ccc(OC2CCN(Cc3ccccn3)CC2)cc1)N1CCCCO1 — lower, -7.22%
- COc1ccc(/C=N/NS(=O)(=O)c2ccc(C)cc2)cc1OC(=O)c1ccc(C)cc1 — higher, 13.5%
- CC(Sc1nnc(-c2ccccc2F)n1C)C(=O)NC1CCCCC1 (stereo not shown) — lower, 4.28%
- Cc1ccc(NC(=O)CCn2cnc3ccccc3c2=O)cc1Cl — lower, 8.77%
- O=C(NCc1nc(-c2ccc(C(F)(F)F)cc2)no1)Nc1ccc(F)cc1F — lower, 10.7%
- CCCCCn1c(C(Cc2ccccc2)NC(C)=O)nc2ccccc21 (stereo not shown) — lower, 10.8%
- Cc1cc2c(cc1S(=O)(=O)N1CCCCC1)OCC(=O)N2 — lower, 7.82%
- Cc1ccc(OCC(=O)n2nc(C)cc2C)c(C)c1 — higher, 15.8%
- Cc1nn(C)c(C)c1S(=O)(=O)N(CC(=O)NC1CCCCCC1)c1ccc(C(C)C)cc1 — lower, 2%
- CC(=O)Nc1cccc(NC(=O)CSc2nn3c(=O)c(C)nnc3s2)c1 — higher, 12.4%
- CC(=O)Nc1ccc(S(=O)(=O)Oc2cccc(N3C(=O)C4CCCCC4C3=O)c2)cc1 (stereo not shown) — lower, -1.48%
- CCSP1(=S)N=C(N2CCOCC2)C(C#N)=C2CCCN21 (stereo not shown) — lower, 0.832%
- CCOCCCNC(=O)c1cc2c(=O)n3cccc(C)c3nc2s1 — lower, 10.7%
- Cc1nnc2n1NC(c1ccc(Cl)cc1)C(C(=O)N(C)C1CCCCC1)S2 (stereo not shown) — lower, -4.55%
- O=C(O)c1ccc(Cl)c(S(=O)(=O)Nc2ccccc2Cc2ccccc2)c1 — higher, 15.4%
- CC(O)C(NS(=O)(=O)c1ccc(Cl)cc1)C(=O)OCc1nnc(-c2ccccc2)o1 (stereo not shown) — lower, 2.11%
- Cc1ccn2cc(CNC(=O)c3cccs3)nc2c1 — lower, 10.5%
